Laboratory results: patent publication US20090130105A1 (Biogen, published 2009)

Experiments:
[1] = target: T1, human IGF-1R on H322M non-small cell lung cancer cells (human, UniProt P08069 31-1367); assay: cell-based or functional assay
sIGF-1R(1-903) [2] = target: T2, sIGF-1R(1-903) (human, UniProt P08069 31-933); assay: SEC with static light scattering
T2 construct: also called soluble IGF-1R ectodomain

sIGF-1R(1-903) [3] = target: T2, sIGF-1R(1-903); assay: ITC, 25 °C, average of two measurements
T2 sequence (P08069 31-933): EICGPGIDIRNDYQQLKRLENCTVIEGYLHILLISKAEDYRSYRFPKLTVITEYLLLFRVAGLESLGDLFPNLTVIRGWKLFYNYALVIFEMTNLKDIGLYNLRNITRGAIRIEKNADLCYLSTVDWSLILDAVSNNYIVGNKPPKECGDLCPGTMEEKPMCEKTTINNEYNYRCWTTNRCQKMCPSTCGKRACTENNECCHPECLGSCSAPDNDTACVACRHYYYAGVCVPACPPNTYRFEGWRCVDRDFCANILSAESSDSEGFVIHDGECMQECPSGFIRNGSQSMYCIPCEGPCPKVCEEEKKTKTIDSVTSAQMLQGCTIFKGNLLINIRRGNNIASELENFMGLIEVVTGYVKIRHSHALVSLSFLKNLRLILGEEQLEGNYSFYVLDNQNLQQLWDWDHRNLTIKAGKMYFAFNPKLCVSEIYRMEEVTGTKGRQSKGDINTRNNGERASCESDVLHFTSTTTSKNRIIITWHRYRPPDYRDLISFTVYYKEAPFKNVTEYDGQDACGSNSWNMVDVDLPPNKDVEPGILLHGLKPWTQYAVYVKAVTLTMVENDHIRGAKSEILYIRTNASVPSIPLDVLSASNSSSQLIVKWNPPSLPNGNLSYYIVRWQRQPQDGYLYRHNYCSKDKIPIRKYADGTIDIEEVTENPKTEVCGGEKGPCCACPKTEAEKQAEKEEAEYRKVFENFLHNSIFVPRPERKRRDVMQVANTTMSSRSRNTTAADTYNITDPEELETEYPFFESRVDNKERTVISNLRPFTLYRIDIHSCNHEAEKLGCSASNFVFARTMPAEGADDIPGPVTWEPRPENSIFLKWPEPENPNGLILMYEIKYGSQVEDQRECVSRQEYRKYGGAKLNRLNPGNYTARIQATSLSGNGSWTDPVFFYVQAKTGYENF
Description: (§1) Isothermal Titration Calorimetry (ITC). […] The reagents were co-dialyzed against PBS, pH 7.2. The protein solutions were adjusted to the concentrations listed above by dilution using PBS dialysate. […] The protein solutions were prepared as described above for the MAb binding experiments. All ITC experiments were performed on an ITC₂₀₀ microcalorimeter (MicroCal, LLC) at 25° C. […] IGF-1R bispecific antibodies. A four minute equilibration period was used between all injections with an initial delay of 60 seconds. Numerical integration of the data was performed using the ITC data analysis software supplied by MicroCal (Origin). ΔHA° (T) values were calculated based on the difference between the average heat liberated/absorbed during the binding phase of the injections and the average heat of dilution found once the receptor, IGF-1R, was saturated with MAb or BsAb.

[4] = target: T1, human IGF-1R on H322M non-small cell …; assay: flow cytometry on H322M cells, anti-human Fc PE secondary (FIG. 55B)
Description: (§2) Cell lines were routinely cultured no greater than 20 passages. Flow cyotometric analysis of antibody binding to human cancer cells. Cells were lifted with cell dissociation buffer (Gibco catalog #13151-014), counted, washed and adjusted to 5×10⁶ cells/ml. Cells (2.5×10⁵; 50 uL) were added to each well of a 96-well round bottom plate (Costar #3799). Purified antibodies were tested at a starting concentration of 300 nM with serial half-log dilutions in FACS buffer. FACS buffer used throughout the assay was PBS (without Ca++/Mg++) containing 5% FBS. Samples were incubated on ice for 30 minutes, washed 3× with 200 uL FACS buffer and centrifuged at 1200 rpm for 3 minutes at 4° C. C2B8 (rituximab, IgG1) was used as a negative control. […] Samples were incubated for an additional 30 minutes on ice, shielded from light. Cells were washed as described above and resuspended in 100 μl FACS buffer containing propidium iodide (PI) for dead cell exclusion (BD Pharmingen, catalog# 51-66211E or 556463; use at 1:500 final in FACS buffer). Samples were run in triplicate using the FACSArray flow cytometer (Becton Dickinson) with 5000 live events collected per sample. Data analysis was performed using the GraphPad Prism version 5.0 software (GraphPad Software Inc., 11452 El Camino Real #215, San Diego, Calif. 92130). Results. […]

[5] = target: T1, human IGF-1R on H322M non-small cell …; assay: flow cytometry on H322M cells, anti-human Fab PE secondary (FIG. 55A)
Description: as §2

sIGF-1R(1-903) [6] = target: T2, sIGF-1R(1-903); assay: equilibrium solution-phase SPR, free sIGF-1R(1-903) read on C06 surface
sIGF-1R(1-903) [7] = target: T2, sIGF-1R(1-903); assay: equilibrium solution-phase SPR, free sIGF-1R(1-903) read on G11 surface
sIGF-1R(1-903) [8] = target: T2, sIGF-1R(1-903); assay: ITC, 25 °C; footnote a: affinity too high for accurate measurement
Description: as §1

reduction of surface IGF-1R after 24 hours (FACS, H322M cells) [1] [%] | molecular weight of the complex (sIGF-1R(1-903) [2]) [MDa] | -TΔS (sIGF-1R(1-903) [3]) [kcal/mol] | Kd (sIGF-1R(1-903) [3]) [nM] | ΔG (sIGF-1R(1-903) [3]) [kcal/mol] | ΔH° (sIGF-1R(1-903) [3]) [kcal/mol] | EC50 [4] [nM] | EC50 [5] [nM] | Kd (sIGF-1R(1-903) [6]) [nM] | n (#C06 specific binding sites) (sIGF-1R(1-903) [6]) | Kd (sIGF-1R(1-903) [7]) [nM] | n (#G11 specific binding sites) (sIGF-1R(1-903) [7]) | -TΔS (sIGF-1R(1-903) [8]) [kcal/mol] | Kd (sIGF-1R(1-903) [8]) [nM] | ΔG (sIGF-1R(1-903) [8]) [kcal/mol] | Binder
> 70 | ~1.3 | 31.6 | 11 | -10.9 | -42.5 | 0.48 | 0.47 | 0.2 | 1.5 | 0.7 | 1.5 | – | – | – | N-terminal anti-IGF-1R bispecific antibody (pXWU136/pXWU118) (bispecific antibody, human IgG1, kappa, G11 IgG1 with stabilized C06 scFv MJF045 (VL I83E) on the N-terminus of the heavy chain by a Gly/Ser linker; also called N-term; IGF-1R BsAb; N-IGF-1R bispecific antibody) heavy: DIQMTQSPLSLSASVGDRVTITCQASRDIRNYLNWYQQKPGKAPKLLIYDASSLQTGVPSRFGGSGSGTDFSFTIGSLQPEDEATYYCQQFDSLPHTFGQGTKLEIKGGGGSGGGGSGGGGSEVQLLESGGGLVQPGGSLRLSCAASGFTFSIYRMQWVRQAPGKGLEWVSGISPSGGTTWYADSVKGRFTISRDNSKNTLYLQMNSLRAEDTAVYYCARWSGGSGYAFDIWGQGTMVTVSSGGGGSGGGGSGGGGSGGGGSGGGGSEVQLLESGGGLVQPGGSLRLSCAASGFTFSNYPMYWVRQAPGKGLEWVSRISSSGGRTVYADSVKGRFTISRDNSKNTLYLQMNSLRAEDTAVYYCARDRWSRSAAEYGLGGYWGQGTLVTVSS[in this place human IgG1 constant region] light: DIQMTQSPDSLAVSLGERATINCKSSQSVLYSSNNKNYLAWYQQKPGQPPKLLIYLASTRESGVPDRFSGSGSGTDFTLTISSLQAEDVAVYYCQQYYSTWTFGQGTKVEIKRTVAAPSVFIFPPSDEQLKSGTASVVCLLNNFYPREAKVQWKVDNALQSGNSQESVTEQDSKDSTYSLSSTLTLSKADYEKHKVYACEVTHQGLSSPVTKSFNRGEC
> 70 | ~1 | – | – | – | -53.9 | – | – | 0.03 | 1.1 | 0.1 | 1.1 | 42.3 | 3 | -11.6 | C-terminal anti-IGF-1R bispecific antibody (pXWU135/pXWU118) (bispecific antibody, human IgG1, kappa, G11 IgG1 with stabilized C06 scFv MJF045 (VL I83E) on the C-terminus of the heavy chain by a Ser(Gly4Ser)3 linker; also called C-term; IGF-1R BsAb; C-IGF-1R bispecific antibody) heavy: EVQLLESGGGLVQPGGSLRLSCAASGFTFSNYPMYWVRQAPGKGLEWVSRISSSGGRTVYADSVKGRFTISRDNSKNTLYLQMNSLRAEDTAVYYCARDRWSRSAAEYGLGGYWGQGTLVTVSS[in this place human IgG1 constant region]SGGGGSGGGGSGGGGSDIQMTQSPLSLSASVGDRVTITCQASRDIRNYLNWYQQKPGKAPKLLIYDASSLQTGVPSRFGGSGSGTDFSFTIGSLQPEDEATYYCQQFDSLPHTFGQGTKLEIKGGGGSGGGGSGGGGSEVQLLESGGGLVQPGGSLRLSCAASGFTFSIYRMQWVRQAPGKGLEWVSGISPSGGTTWYADSVKGRFTISRDNSKNTLYLQMNSLRAEDTAVYYCARWSGGSGYAFDIWGQGTMVTVSS light: DIQMTQSPDSLAVSLGERATINCKSSQSVLYSSNNKNYLAWYQQKPGQPPKLLIYLASTRESGVPDRFSGSGSGTDFTLTISSLQAEDVAVYYCQQYYSTWTFGQGTKVEIKRTVAAPSVFIFPPSDEQLKSGTASVVCLLNNFYPREAKVQWKVDNALQSGNSQESVTEQDSKDSTYSLSSTLTLSKADYEKHKVYACEVTHQGLSSPVTKSFNRGEC
